Reference: the supplement of paper PMC4604168 (melanoma cell lines)
The other results are listed elsewhere or left out. Many values rest on one well or one pass, so single values are uncertain.

Key:
Assay in all cases: cell count relative to DMSO control; melanoma cells; higher = more viable cells
Settings in all cases: library dose: low library concentration; 72 h
MZ2-MEL = test system: MZ2-MEL
MeWo = test system: MeWo
RPMI7951 = test system: RPMI7951
RVH-421 = test system: RVH-421
SkMel28 = test system: SkMel28
SkMel2 = test system: SkMel2
SkMel30 = test system: SkMel30
SkMel5 = test system: SkMel5
UACC257 = test system: UACC257
UACC62 = test system: UACC62
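Also: cell number obtained by counting DAPI-stained nuclei in high-throughput microscope images with image analysis software, screen run in 1,536-well plates.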

SMILES | cell count (MZ2-MEL) [%] | cell count (MeWo) [%] | cell count (RPMI7951) [%] | cell count (RVH-421) [%] | cell count (SkMel28) [%] | cell count (SkMel2) [%] | cell count (SkMel30) [%] | cell count (SkMel5) [%] | cell count (UACC257) [%] | cell count (UACC62) [%]
C[C@@H](Oc1cc(-c2cnn(C3CCNCC3)c2)cnc1N)c1c(Cl)ccc(F)c1Cl [Crizotinib] + COc1cc(N2CCC(N3CCN(C)CC3)CC2)ccc1Nc1ncc(Cl)c(Nc2ccccc2S(=O)(=O)C(C)C)n1 [NVP-TAE684] (first compound 0.2 µM, partner dose 0.08 µM) | 111 | 83.9 | 93.2 | 108 | 81.1 | 92.6 | 102 | 79.3 | 68.3 | 92.6
CNC(=O)c1cc(Oc2ccc(NC(=O)Nc3ccc(Cl)c(C(F)(F)F)c3)cc2)ccn1 [sorafenib] + O=C(O)c1ccc(-c2c[nH]c3ncc(-c4ccccc4)cc23)cc1C1CCCC1 [GSK650394] (first compound 0.4 µM, partner dose 0.16 µM) | 103 | 94.8 | 108 | 124 | 103 | 96.9 | 103 | 83.8 | 127 | 82.5
C[C@@H](Oc1cc(-c2cnn(C3CCNCC3)c2)cnc1N)c1c(Cl)ccc(F)c1Cl [Crizotinib] + C=CCn1c(=O)c2cnc(Nc3ccc(N4CCN(C)CC4)cc3)nc2n1-c1cccc(C(C)(C)O)n1 [MK1775] (first compound 0.2 µM, partner dose 0.02 µM) | 106 | 91.3 | 112 | 64 | 85.5 | 91.9 | 95.6 | 84.7 | 83.5 | 92.6
CS(=O)(=O)CCNCc1ccc(-c2ccc3ncnc(Nc4ccc(OCc5cccc(F)c5)c(Cl)c4)c3c2)o1 [lapatinib] + NC(=O)Nc1cc(-c2cccc(F)c2)sc1C(=O)N[C@H]1CCCNC1 [AZD7762] (first compound 0.8 µM, partner dose 0.02 µM) | 106 | 104 | 96.7 | 121 | 98.4 | 110 | 82.4 | 113 | 119 | 96.9
C[C@@H](Oc1cc(-c2cnn(C3CCNCC3)c2)cnc1N)c1c(Cl)ccc(F)c1Cl [Crizotinib] + COc1cc2c(Oc3ccc4[nH]c(C)cc4c3F)ncnc2cc1OCCCN1CCCC1 [cediranib] (first compound 0.2 µM, partner dose 0.4 µM) | 98.5 | 99.7 | 114 | 104 | 108 | 96.6 | 105 | 102 | 83.5 | 88.2
C=CCNC1=C2C[C@@H](C)C[C@H](OC)[C@H](O)[C@@H](C)/C=C(\C)[C@H](OC(N)=O)[C@@H](OC)/C=C\C=C(/C)C(=O)NC(=CC1=O)C2=O [Tanespimycin] + O=S(=O)(c1ccccc1)N(CC(F)(F)F)c1ccc(C(O)(C(F)(F)F)C(F)(F)F)cc1 [T0901317] (first compound 0.002 µM, partner dose 1.4 µM) | 97.9 | 86.3 | 99.6 | 98.3 | 105 | 84.1 | 83.7 | 85 | 90.9 | 86.5
CN1CCN(c2ccc3nc(-c4c(N)c5c(F)cccc5[nH]c4=O)[nH]c3c2)CC1 [Dovitinib] + COc1ccc(-c2ccc3c(N4CCOCC4)nc(N4C[C@@H](C)O[C@@H](C)C4)nc3n2)cc1CO [KU0063794] (first compound 0.1 µM, partner dose 0.02 µM) | 97.1 | 101 | 106 | 78.8 | 98.4 | 100 | 84 | 109 | 114 | 98.8
CS(=O)(=O)CCNCc1ccc(-c2ccc3ncnc(Nc4ccc(OCc5cccc(F)c5)c(Cl)c4)c3c2)o1 [lapatinib] + CCc1ccc(CCOc2ccc(CC3SC(=O)NC3=O)cc2)nc1 [pioglitazone] (first compound 0.8 µM, partner dose 2 µM) | 98 | 86.5 | 86.9 | 82.1 | 99.3 | 88.5 | 83.3 | 95.9 | 78.4 | 96.1
C[C@@H](Oc1cc(-c2cnn(C3CCNCC3)c2)cnc1N)c1c(Cl)ccc(F)c1Cl [Crizotinib] + c1cc(-c2cnn3cc(-c4ccc(OCCN5CCCCC5)cc4)cnc23)ccn1 [Dorsomorphin] (first compound 0.2 µM, partner dose 0.4 µM) | 99.1 | 92.7 | 102 | 106 | 88.1 | 109 | 83.9 | 74.9 | 73.3 | 77.2
CN1CCN(c2ccc3nc(-c4c(N)c5c(F)cccc5[nH]c4=O)[nH]c3c2)CC1 [Dovitinib] + CCc1ccc(CCOc2ccc(CC3SC(=O)NC3=O)cc2)nc1 [pioglitazone] (first compound 0.1 µM, partner dose 2 µM) | 101 | 82.8 | 115 | 121 | 90.2 | 117 | 102 | 84.2 | 73.1 | 95.9
C=CCNC1=C2C[C@@H](C)C[C@H](OC)[C@H](O)[C@@H](C)/C=C(\C)[C@H](OC(N)=O)[C@@H](OC)/C=C\C=C(/C)C(=O)NC(=CC1=O)C2=O [Tanespimycin] + COc1cc(N2CCC(N3CCN(C)CC3)CC2)ccc1Nc1ncc(Cl)c(Nc2ccccc2S(=O)(=O)C(C)C)n1 [NVP-TAE684] (first compound 0.002 µM, partner dose 0.08 µM) | 99.4 | 98.9 | 97.1 | 109 | 110 | 89.3 | 87.4 | 78.8 | 69.8 | 94.5
C[C@@H](Oc1cc(-c2cnn(C3CCNCC3)c2)cnc1N)c1c(Cl)ccc(F)c1Cl [Crizotinib] + Oc1nc(-c2ccc(C(F)(F)F)cc2)nc2c1CSCC2 [XAV939] (first compound 0.2 µM, partner dose 2 µM) | 95.1 | 100 | 110 | 87.7 | 106 | 91.7 | 102 | 86.7 | 79.6 | 94.1
CNC(=O)c1cc(Oc2ccc(NC(=O)Nc3ccc(Cl)c(C(F)(F)F)c3)cc2)ccn1 [sorafenib] + Cc1cc(N2CCOCC2)cc2[nH]c(-c3c(NC[C@@H](O)c4cccc(Cl)c4)cc[nH]c3=O)nc12 [BMS536924] (first compound 0.4 µM, partner dose 0.2 µM) | 95.1 | 92.2 | 98.8 | 85.6 | 85.9 | 91.3 | 80.5 | 85.6 | 77.5 | 103
CN1CCN(c2ccc3nc(-c4c(N)c5c(F)cccc5[nH]c4=O)[nH]c3c2)CC1 [Dovitinib] + COc1cc(Nc2ncc(F)c(Nc3ccc4c(n3)NC(=O)C(C)(C)O4)n2)cc(OC)c1OC [Tamatinib] (first compound 0.1 µM, partner dose 0.4 µM) | 73.7 | 83.5 | 96.2 | 105 | 82.9 | 91.6 | 77.5 | 92 | 85.8 | 90.6
CNC(=O)c1cc(Oc2ccc(NC(=O)Nc3ccc(Cl)c(C(F)(F)F)c3)cc2)ccn1 [sorafenib] + CCN(CC)CCCCNc1ncc2cc(-c3cc(OC)cc(OC)c3)c(NC(=O)NC(C)(C)C)nc2n1 [PD173074] (first compound 0.4 µM, partner dose 0.1 µM) | 95.5 | 115 | 96.3 | 77.3 | 110 | 100 | 122 | 90.8 | 97.3 | 91.3
CNC(=O)c1cc(Oc2ccc(NC(=O)Nc3ccc(Cl)c(C(F)(F)F)c3)cc2)ccn1 [sorafenib] + O=S(=O)(c1ccccc1)N(CC(F)(F)F)c1ccc(C(O)(C(F)(F)F)C(F)(F)F)cc1 [T0901317] (first compound 0.4 µM, partner dose 1.4 µM) | 99.4 | 106 | 123 | 94.8 | 98.2 | 106 | 116 | 97.8 | 66.8 | 93.3
C[C@@H](Oc1cc(-c2cnn(C3CCNCC3)c2)cnc1N)c1c(Cl)ccc(F)c1Cl [Crizotinib] + CN(NC(=O)CC(=O)NN(C)C(=S)c1ccccc1)C(=S)c1ccccc1 [STA4783] (first compound 0.2 µM, partner dose 0.006 µM) | 104 | 92.6 | 111 | 83.5 | 98.2 | 90.6 | 103 | 96.2 | 89.3 | 71.6
CNC(=O)c1cc(Oc2ccc(NC(=O)Nc3ccc(Cl)c(C(F)(F)F)c3)cc2)ccn1 [sorafenib] + CO[C@@H]1[C@H](N(C)C(=O)c2ccccc2)C[C@H]2O[C@]1(C)n1c3ccccc3c3c4c(c5c6ccccc6n2c5c31)C(=O)NC4 [Midostaurin] (first compound 0.4 µM, partner dose 0.08 µM) | 94.2 | 79 | 58.2 | 81.3 | 92.2 | 83.7 | 92.3 | 72.6 | 55.4 | 77.8
CS(=O)(=O)CCNCc1ccc(-c2ccc3ncnc(Nc4ccc(OCc5cccc(F)c5)c(Cl)c4)c3c2)o1 [lapatinib] + CCCS(=O)(=O)Nc1ccc(F)c(C(=O)c2c[nH]c3ncc(Cl)cc23)c1F [PLX4720] (first compound 0.8 µM, partner dose 0.08 µM) | 83.9 | 98.4 | 99.7 | 104 | 97.3 | 99.8 | 101 |  |  | 76.7
